Test results from CN101663321A.
One block for each binder: values may come before it.

Key:
[1] = biological target: denatured soluble hLIGHT (boiled in 2x SDS sample buffer) (human) (UniProt O43557); experiment: dot blot: serial dilutions of hLIGHT spotted on PVDF, probed with 5 μg/ml antibody
[2] = biological target: soluble FLAG-tagged recombinant hLIGHT (Gly66-Val240 with N-terminal FLAG), native form (human) (UniProt O43557); experiment: as above

lowest detection limit (dot blot) [1]: 0.64 ng
lowest detection limit (dot blot) [2]: 0.64 ng
B1: E13 antibody (produced by hybridoma 124E13, ATCC PTA-7842) (antibody, human IgG1, V domains shown)
VH: EVQLVESGGGLVKPGGSLRLSCAASGFTLSNAWMSWVRQAPGKGLEWVGRIKSKIDGGTTDYAAPVKGRFTISRDDSKNTLFLQMNSLKTEDTAVYYCTTAMAGAFGFWGQGTLVTVSS
VL: [letters of about 120 residues left out]

lowest detection limit (dot blot) [1]: 139 ng
lowest detection limit (dot blot) [2]: 23 ng
B2: E1 antibody (produced by hybridoma 124E1, ATCC PTA-7729) (antibody, human IgG1, V domains shown)
VH: EVQLVESGGGLVQPGGSLRLSCAASGFTFSRFNMNWVRQAPGKGLEWVSYISSSSYTIYYADSVKGRFTISRDNAKNSLDLQMNSLRDEDTAVYYCARSIAAAFDYWGQGALVTVSS
VL: [letters of about 100 residues left out]YTFGQGTKLEIK
